Measurements from PMC12136788.
This is one part of the list.

T1: UNK ZnF1-3 (human, UniProt Q9C0B0 31-174)
T1 sequence: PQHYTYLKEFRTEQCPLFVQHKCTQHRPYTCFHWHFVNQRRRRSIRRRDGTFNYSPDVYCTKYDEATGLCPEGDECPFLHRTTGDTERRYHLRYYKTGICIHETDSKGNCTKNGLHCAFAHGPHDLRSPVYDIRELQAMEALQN

B1: chr16:94664741:94664742:+_ENSMUSG00000040785_ENSMUST00000117648|mus_hu|mus_mus_mus_hu_False|48_58 (ssRNA)
RNA: GGGAGUUCUACAGUCCGACGAUCUGGUACUGAUCUUGGUAGCUGAUAUUCAGGAGAAAGGCUGGCCAAGGGUGUAUAAAUGCUAGUGAACUGCGACAAACCUGGUAACACGUUUAUGUAUGCUGGCGGUGUCUGGGUGAUAUCCAACAGAGGAUUGAGCAUCA
B2: chr11:23509083:23509084:-_ENSMUSG00000042208_ENSMUST00000043356|mus_hu|motif|central (ssRNA)
RNA: GGGAGUUCUACAGUCCGACGAUCUGUUCCCCACAAUCGCCAGUAUACAUCUCUCCAAGAUUUUAAUUCUUCGAAAAGACGGUUCAAAUACUCAUGAACAUCCCAUGUCUUAUCUCUUAUGUGAAUAUAGACAAUAUUUCCACGCAACAGAGGAUUGAGCAUCA
B3: chr2:61705333:61705334:-_ENSG00000082898_ENST00000401558|hu_mus|motif|central (ssRNA)
RNA: GGGAGUUCUACAGUCCGACGAUCUCGACAAGCGACAGCACACACACACACACACAAACAAAAAGAACUGUGUAAAAAUAACGGACUGUUCCCAUAUUUUUGAAGUUGCUUUACAAUGGGAUGAUAUGCACAUGAUCUUGCUGCCAACAGAGGAUUGAGCAUCA
B4: chr19:60949100:60949101:-_ENSMUSG00000024997_ENSMUST00000025961|mus_mus|motif|central (ssRNA)
RNA: GGGAGUUCUACAGUCCGACGAUCGGCAGAGGCAGACCACAGUAUGUCUGUCAAACAGGUUCUUCUAGAAGCAACAGGCCGGAGAACUGUUGAGGCAGAAAUACUCCGGGAAAUAGCACUUGCAUGACGAGCAACCGAGGACCACAACAGAGGAUUGAGCAUCA
B5: chr16:57283700:57283701:+_ENSG00000102931_ENST00000219204|hu_hu|FALSE|FALSE (ssRNA)
RNA: GGGAGUUCUACAGUCCGACGAUCUGUGGUGAAGGCUGCCAUGUUGAACUCAGGAAUCCGCUGCAGCAGCUGUUCUUCAAUGUAUUUUUCUACCAAAGAAAUGUAUUCAUUAAAAAUAGGUGUGUAGAUGAGUUUAUUCUCUUCCAACAGAGGAUUGAGCAUCA
B6: chrX:35795285:35795286:-_ENSMUSG00000016534_ENSMUST00000061755|mus_mus|motif|central (ssRNA)
RNA: GGGAGUUCUACAGUCCGACGAUCGAAAUUCAUCUCCCAUUCUGCAUAAAGGCAAGUACCCUUUGAAUCUGUCAAAUUAACGGUCAAUGCAUUGGACUGAACGGCUCCUAGGAACAGAAAGAUCAGGAUGAGCUUUGCGCCUUUCAACAGAGGAUUGAGCAUCA
B7: chr2:47387770:47387771:-_ENSG00000143933_ENST00000272298|hu_mus|hu_hu_hu_mus_True|1_8 (ssRNA)
RNA: GGGAGUUCUACAGUCCGACGAUCAAGGUUUAAGGACAAUGACAGUAAGAUAAGGGAAGAAAACAUGGAGGAAUGAAGUCCUAAUUACUAUACAUGCAUAUUUUUUGACAGUAGGGGGGGGGAACCUUACAGAUAAGUUACAAACAACAGAGGAUUGAGCAUCA
B8: chr8:42798479:42798480:+_ENSG00000168172_ENST00000307602|hu_hu|FALSE|FALSE (ssRNA)
RNA: GGGAGUUCUACAGUCCGACGAUCAGAAUGCUCCCCAAUAAGGUUCACAUCAGGAAGGGUAAAGUCAUUAAUUUGCUGUCCUAAAAUCUCAUGAUUAUAAUCCAAGAUUCCUUUUAAAAUUUUCUUUAAAUUGCUUAUCUUUAGCAACAGAGGAUUGAGCAUCA
B9: 2203353_2203473_684_CDS_ENSG00000070366_ENST00000263073|human|control|control (ssRNA)
RNA: GGGAGUUCUACAGUCCGACGAUCGUCGUGGGUUUCCCUCACCCCCUCCCCUUUUCCCAUCCUCUUUCCUUUUUCUCCUUUUGCAGCCCCUACUCUCCCACCACCUGGGCUCUUUUCUAUCUCAGCCCUGUCUGGUUUAUUCGCCAACAGAGGAUUGAGCAUCA
B10: chr11:4749296:4749297:-_ENSMUSG00000009073_ENSMUST00000109910|mus_hu|motif|central (ssRNA)
RNA: GGGAGUUCUACAGUCCGACGAUCGCGACCCGGCACUCCGGGAUUCGGGCCGGAGAUGCCGGGGACGCCUCGGGACGGGACCCCGGGACGGCAGCGGCCCAGACUCCGCGCGCCUCUCAGCGGCCGACUAGGGUCACGGGGCCGCAACAGAGGAUUGAGCAUCA
B11: chr19:16212804:16212805:+_ENSG00000167460_ENST00000300933|hu_mus|hu_hu_hu_mus_False|1_8 (ssRNA)
RNA: GGGAGUUCUACAGUCCGACGAUCAACAAUUCUGGAGUGAAGGAAAGAUGUAACAUGGAACAGCAUUAAAGCUCAGUCAGAAGGCACAUGGGCAACAAUGAUCACCCCAGCAUUCUCGCUUGGAAUGUGCUUGAGAAGAUGUUUCAACAGAGGAUUGAGCAUCA
B12: chr16:4561903:4561904:-_ENSG00000089486_ENST00000567695|hu_hu|FALSE|FALSE (ssRNA)
RNA: GGGAGUUCUACAGUCCGACGAUCAGGCAUGGCCUGAAAGGGGGUCUGCACACUGACUCAAAGGGACAAGUUCCUUCUUAGCUACCAGGGUCUGAUCAUUCACCCAGGUACAGUGUCCUCUCUACCUGACACCAGGCAGCUCUCCAACAGAGGAUUGAGCAUCA
B13: 58473186_58473306_2931_ncRNA_ENSMUSG00000026034_ENSMUST00000129577|mouse|control|control (ssRNA)
RNA: GGGAGUUCUACAGUCCGACGAUCAUUGGGCUGCAUUACAGAUGGUUGUGAGCCACCAUGUGGUUGCUGGGAUUUGAACUCAGGGCCUCUGGAAGAGCAGUCAGUGCUCUUAACCGCUAAGAGAUGUCUCCAGCCCACAAGUCUCAACAGAGGAUUGAGCAUCA
B14: 23548034_23548154_1982_CDS_ENSG00000100813_ENST00000605057|human|control|control (ssRNA)
RNA: GGGAGUUCUACAGUCCGACGAUCAGGCUGUAACCUCUGGGUCACAUGCUUUUCAGCUGAUUCAGGCUGACUCAGACGCCUUGCUUGGACAGAGGAUGAGGAGGUGGAAGUCCUCUCCUUUGGCUCACAGACCUGCAGUUGUGGCAACAGAGGAUUGAGCAUCA
B15: 90701550_90703810_897_3pUTR_ENSMUSG00000027282_ENSMUST00000136872|mouse|control|control (ssRNA)
RNA: GGGAGUUCUACAGUCCGACGAUCCAUGCACCAGCAAUCUAUCCAAGAAGUGUAUAUUGGGGAAUAAGGAGGAGAUCCACCAGCAAGCCCACAGUUGUUGACGGCCAUAAGAUUAGAUACAAGCACAAAGGGAUAUGUCAACAUCAACAGAGGAUUGAGCAUCA
B16: chr17:5392700:5392701:+_ENSG00000167842_ENST00000573759|hu_mus|FALSE|FALSE (ssRNA)
RNA: GGGAGUUCUACAGUCCGACGAUCGCUCUGAAGUUUUCUGCAGCUCUGGACCAGGGAUGCCAAACUCUCCCUAAAGUUACUAGUUCCUUGAUAUCUGCCGAUGUUUUCAAGCUCAUCAAAGAAAGUCAAGGUCUCUCUGAGUUUCAACAGAGGAUUGAGCAUCA
B17: chr12:45383693:45383694:+_ENSMUSG00000036257_ENSMUST00000043082|mus_hu|motif|central (ssRNA)
RNA: GGGAGUUCUACAGUCCGACGAUCACAAGAAAUACAGUUGCUUGCUUCUCUGCUUCCCACAAACACUUCUUGCAUUACGGAGGAGGUAAAUAUAUAUAUCUACAGUCAGAUUAAUAGACAUAACUUAAAAAUCAUUUAUUUUCUCAACAGAGGAUUGAGCAUCA
B18: chr11:87793471:87793472:-_ENSMUSG00000020483_ENSMUST00000020775|mus_mus|mus_mus_mus_hu_False|1_8 (ssRNA)
RNA: GGGAGUUCUACAGUCCGACGAUCUGGACUUGAAAAUAAAAGAAUAAGCUGGAUCCCCCACCCCCCCACAUUGUCAACCCUACACGAGAGUUUUGAAGGCGACUCAUGAAAAUCAGCAGCUCAAACGAAUGACAACCCCCACCCCAACAGAGGAUUGAGCAUCA
B19: chr22:19452774:19452775:-_ENSG00000070010_ENST00000399523|hu_hu|hu_hu_hu_mus_False|28_78 (ssRNA)
RNA: GGGAGUUCUACAGUCCGACGAUCCUUCUCAUUGUAGUUGAUAGCAAUCACAUCUCCGGUGGUCAGACAGGCGAAGUUUCUCAAUGCAUUUUCUAAUACCGCUUUAGGGUUGGUGAUAUCCAGGAAGUCUGGGCUCUGAGGCUGCAACAGAGGAUUGAGCAUCA
B20: chr4:17845017:17845018:+_ENSG00000109805_ENST00000514176|hu_mus|hu_hu_hu_mus_False|88_108 (ssRNA)
RNA: GGGAGUUCUACAGUCCGACGAUCGCUUCCUAACUUAGUAUCUUCAUGAGAAAUUGGUGCAAGGUUAAGUUUACUUUUCUGUAGCGCAGCUGUUUUGGCUCGUCUGGGUAAUCUCAUCUUCAUUUCUGAUGGUGGUUCAUGAUCCAACAGAGGAUUGAGCAUCA
B21: chr17:45705486:45705487:-_ENSMUSG00000023944_ENSMUST00000024739|mus_mus|motif|central (ssRNA)
RNA: GGGAGUUCUACAGUCCGACGAUCGUUGGCUGUCCAGCCAUAGGUGCUUGUCACAAUGCAGCAGGGUGAAGACACAAGCCGGUUGGAGAUUGUCACCUUUUCAACCUUCUUGUCCAAGAUCUCCUUCAUGAGCUUGCAGAGAUUCAACAGAGGAUUGAGCAUCA
B22: chr9:14812383:14812384:-_ENSMUSG00000031934_ENSMUST00000164273|mus_mus|mus_mus_mus_hu_True|1_98 (ssRNA)
RNA: GGGAGUUCUACAGUCCGACGAUCAUAGCCCAGGUAGAUACAUGCCAACAGUAUAAUGAUGAGUGUCAGCAGGCGGCAGCUAAUGUACUUGAUGAUUAAAUUAUUAGAAUUUUUCUUUGUCUUCAAGUACUGCUCCACGAUUGGCAACAGAGGAUUGAGCAUCA

The binders below were run against T1, UNK ZnF1-3 (assay: nsRBNS (natural sequence RNA bind-n-seq); RBNS binding buffer (assumed for nsRBNS): 25 mM Tris pH 7.5, 150 mM KCl, 3 mM MgCl2, 0.01% Triton X-100, 500 ug/ml BSA, 20 U/ml SUPERase-In, 4 C; UNK is unkempt and MSI1 is Musashi-1; names of the RNAs are library labels; protein concentration not given here; high values mean tight binding).

Row | Binder | binding signal [enrichment R]
1 | B1 | 1.08
2 | B2 | 1.12
3 | B3 | 0.945
4 | B4 | 1.5
5 | B5 | 1.02
6 | B6 | 1.11
7 | B7 | 2.3
8 | B8 | 1.45
9 | B9 | 0.426
10 | B10 | 0.571
11 | B11 | 1.5
12 | B12 | 0.805
13 | B13 | 0.945
14 | B14 | 0.438
15 | B15 | 1.39
16 | B16 | 0.71
17 | B17 | 1.05
18 | B18 | 2.43
19 | B19 | 0.925
20 | B20 | 0.517
21 | B21 | 0.915
22 | B22 | 1.36
